In PMC10868759:
These are yes or no findings as the source states them, for the method shown. In cells and extracts the contact can be indirect. Some results given as binding are weak or reduced against the parent protein; the word gives no strength. Tags and fused reporters may be left off the sequences shown.

B1: CESA3, N-terminal YN or YC fusion (BiFC) (protein, UniProt Q941L0 1-1065)
chain: MESEGETAGKPMKNIVPQTCQICSDNVGKTVDGDRFVACDICSFPVCRPCYEYERKDGNQSCPQCKTRYKRLKGSPAIPGDKDEDGLADEGTVEFNYPQKEKISERMLGWHLTRGKGEEMGEPQYDKEVSHNHLPRLTSRQDTSGEFSAASPERLSVSSTIAGGKRLPYSSDVNQSPNRRIVDPVGLGNVAWKERVDGWKMKQEKNTGPVSTQAASERGGVDIDASTDILADEALLNDEARQPLSRKVSIPSSRINPYRMVIMLRLVILCLFLHYRITNPVPNAFALWLVSVICEIWFALSWILDQFPKWFPVNRETYLDRLALRYDREGEPSQLAAVDIFVSTVDPLKEPPLVTANTVLSILAVDYPVDKVSCYVSDDGAAMLSFESLAETSEFARKWVPFCKKYSIEPRAPEWYFAAKIDYLKDKVQTSFVKDRRAMKREYEEFKIRINALVSKALKCPEEGWVMQDGTPWPGNNTRDHPGMIQVFLGQNGGLDAEGNELPRLVYVSREKRPGFQHHKKAGAMNALVRVSAVLTNGPFILNLDCDHYINNSKALREAMCFLMDPNLGKQVCYVQFPQRFDGIDKNDRYANRNTVFFDINLRGLDGIQGPVYVGTGCVFNRTALYGYEPPIKVKHKKPSLLSKLCGGSRKKNSKAKKESDKKKSGRHTDSTVPVFNLDDIEEGVEGAGFDDEKALLMSQMSLEKRFGQSAVFVASTLMENGGVPPSATPENLLKEAIHVISCGYEDKSDWGMEIGWIYGSVTEDILTGFKMHARGWRSIYCMPKLPAFKGSAPINLSDRLNQVLRWALGSVEILFSRHCPIWYGYNGRLKFLERFAYVNTTIYPITSIPLLMYCTLPAVCLFTNQFIIPQISNIASIWFLSLFLSIFATGILEMRWSGVGIDEWWRNEQFWVIGGVSAHLFAVFQGILKVLAGIDTNFTVTSKASDEDGDFAELYLFKWTTLLIPPTTLLIVNLVGVVAGVSYAINSGYQSWGPLFGKLFFAFWVIVHLYPFLKGLMGRQNRTPTIVVVWSVLLASIFSLLWVRIDPFTSRVTGPDILECGINC
B2: CESA6, N-terminal YN or YC fusion (BiFC) (protein, UniProt Q94JQ6 1-1084)
chain: MNTGGRLIAGSHNRNEFVLINADENARIRSVQELSGQTCQICRDEIELTVDGEPFVACNECAFPVCRPCYEYERREGNQACPQCKTRFKRLKGSPRVEGDEEEDDIDDLDNEFEYGNNGIGFDQVSEGMSISRRNSGFPQSDLDSAPPGSQIPLLTYGDEDVEISSDRHALIVPPSLGGHGNRVHPVSLSDPTVAAHPRPMVPQKDLAVYGYGSVAWKDRMEEWKRKQNEKLQVVRHEGDPDFEDGDDADFPMMDEGRQPLSRKIPIKSSKINPYRMLIVLRLVILGLFFHYRILHPVKDAYALWLISVICEIWFAVSWVLDQFPKWYPIERETYLDRLSLRYEKEGKPSGLSPVDVFVSTVDPLKEPPLITANTVLSILAVDYPVDKVACYVSDDGAAMLTFEALSETAEFARKWVPFCKKYCIEPRAPEWYFCHKMDYLKNKVHPAFVRERRAMKRDYEEFKVKINALVATAQKVPEDGWTMQDGTPWPGNSVRDHPGMIQVFLGSDGVRDVENNELPRLVYVSREKRPGFDHHKKAGAMNSLIRVSGVLSNAPYLLNVDCDHYINNSKALREAMCFMMDPQSGKKICYVQFPQRFDGIDRHDRYSNRNVVFFDINMKGLDGLQGPIYVGTGCVFRRQALYGFDAPKKKKGPRKTCNCWPKWCLLCFGSRKNRKAKTVAADKKKKNREASKQIHALENIEEGRVTKGSNVEQSTEAMQMKLEKKFGQSPVFVASARMENGGMARNASPACLLKEAIQVISCGYEDKTEWGKEIGWIYGSVTEDILTGFKMHSHGWRSVYCTPKLAAFKGSAPINLSDRLHQVLRWALGSVEIFLSRHCPIWYGYGGGLKWLERLSYINSVVYPWTSLPLIVYCSLPAICLLTGKFIVPEISNYASILFMALFSSIAITGILEMQWGKVGIDDWWRNEQFWVIGGVSAHLFALFQGLLKVLAGVDTNFTVTSKAADDGEFSDLYLFKWTSLLIPPMTLLIINVIGVIVGVSDAISNGYDSWGPLFGRLFFALWVIIHLYPFLKGLLGKQDRMPTIIVVWSILLASILTLLWVRVNPFVAKGGPILEICGLDCL

Columns and labels:
[1] = target: T1, CESA3, N-terminal YN or YC fusion (BiFC) (Arabidopsis thaliana) (UniProt Q941L0); assay: split reporter; BiFC: N-terminal YN and YC fusions co-expressed in epidermal cells of N. benthamiana leaves, observed 3 days after infiltration by spinning-disk microscopy; CFP-N7 as transformation control
T1 sequence: B1 chain

[2] = target: T2, CESA6, N-terminal YN or YC fusion (BiFC) (Arabidopsis thaliana) (UniProt Q94JQ6); assay: as above
T2 sequence: B2 chain

| Binder | binding [1] | binding [2] |
| --- | --- | --- |
| B1 | binds |  |
| B2 |  | binds |
